# The list shows a part of the results.
# What was measured:
# Test in all cases: glycan array binding signal (z-score within array); higher = stronger binding
# Details in all cases: glycan notation: IUPAC condensed, linker removed
# GlcNAc(b1-4)GlcNAc = molecular target: GlcNAc(b1-4)GlcNAc
# Method in brief: (§1)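 The binding signal is a Z-score computed within each array. Data were drawn from 3228 arrays in the Consortium for Functional Glycomics database, restricted to those with a known protein sequence. Scores were averaged over arrays of the same protein sequence at different concentrations or buffers, and over linkers, and negative values can be taken as non-binding.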
# [1] = molecular target: GlcNAc(b1-4)GlcNAc(b1-4)GlcNAc
# Method in brief: as §1
# [2] = molecular target: GlcNAc(b1-4)GlcNAc(b1-4)GlcNAc(b1-4)GlcNAc(b1-4)GlcNAc
# Method in brief: as §1
# [3] = molecular target: GlcNAc(b1-4)GlcNAc(b1-4)GlcNAc(b1-4)GlcNAc(b1-4)GlcNAc(b1-4)GlcNAc
# Method in brief: as §1
# [4] = molecular target: GlcNAc(b1-4)[GlcNAc(b1-6)]GalNAc
# Method in brief: as §1
# [5] = molecular target: GlcNAc(b1-6)Gal(b1-4)GlcNAc
# Method in brief: as §1
# GlcNAc(b1-6)GalNAc = molecular target: GlcNAc(b1-6)GalNAc
# Method in brief: as §1
# GlcNAc3Prop(b1-4)GlcNAc = molecular target: GlcNAc3Prop(b1-4)GlcNAc
# Method in brief: as §1
# [6] = molecular target: GlcNAc6S(b1-3)Gal(b1-4)GlcNAc
# Method in brief: as §1
# Kdn(a2-3)Gal(b1-3)GalNAc = molecular target: Kdn(a2-3)Gal(b1-3)GalNAc
# Method in brief: as §1
# Kdn(a2-3)Gal(b1-3)GlcNAc = molecular target: Kdn(a2-3)Gal(b1-3)GlcNAc
# Method in brief: as §1
# Kdn(a2-3)Gal(b1-4)Glc = molecular target: Kdn(a2-3)Gal(b1-4)Glc
# Method in brief: as §1
# Kdn(a2-3)Gal(b1-4)GlcNAc = molecular target: Kdn(a2-3)Gal(b1-4)GlcNAc
# Method in brief: as §1
# [7] = molecular target: Kdn(a2-3)Gal(b1-4)[Fuc(a1-3)]GlcNAc
# Method in brief: as §1
# Kdn(a2-6)Gal(b1-4)GlcNAc = molecular target: Kdn(a2-6)Gal(b1-4)GlcNAc
# Method in brief: as §1
# [8] = molecular target: Man(a1-2)Man(a1-2)Man(a1-3)Man
# Method in brief: as §1
# [9] = molecular target: Man(a1-2)Man(a1-2)Man(a1-6)[Man(a1-3)]Man
# Method in brief: as §1
# Man(a1-2)Man(a1-3)Man = molecular target: Man(a1-2)Man(a1-3)Man
# Method in brief: as §1
# [10] = molecular target: Man(a1-2)Man(a1-3)[Man(a1-2)Man(a1-6)]Man
# Method in brief: as §1
# [11] = molecular target: Man(a1-2)Man(a1-3)[Man(a1-2)Man(a1-6)]Man(a1-6)[Man(a1-2)Man(a1-2)Man(a1-3)]Man
# Method in brief: as §1
# [12] = molecular target: Man(a1-2)Man(a1-3)[Man(a1-2)Man(a1-6)]Man(a1-6)[Man(a1-2)Man(a1-2)Man(a1-3)]Man(b1-4)GlcNAc(b1-4)GlcNAc
# Method in brief: as §1
# [13] = molecular target: Man(a1-2)Man(a1-3)[Man(a1-6)]Man(a1-6)[Man(a1-2)Man(a1-3)]Man(b1-4)GlcNAc(b1-4)GlcNAc
# Method in brief: as §1
# [14] = molecular target: Man(a1-2)Man(a1-6)[Man(a1-3)]Man(a1-6)[Man(a1-2)Man(a1-2)Man(a1-3)]Man
# Method in brief: as §1
# [15] = molecular target: Man(a1-2)Man(a1-6)[Man(a1-3)]Man(a1-6)[Man(a1-2)Man(a1-2)Man(a1-3)]Man(b1-4)GlcNAc(b1-4)GlcNAc
# Method in brief: as §1
# Man(a1-3)[Man(a1-6)]Man = molecular target: Man(a1-3)[Man(a1-6)]Man
# Method in brief: as §1
# [16] = molecular target: Man(a1-3)[Man(a1-6)]Man(a1-6)[Man(a1-2)Man(a1-3)]Man(b1-4)GlcNAc(b1-4)GlcNAc
# Method in brief: as §1
# [17] = molecular target: Man(a1-3)[Man(a1-6)]Man(a1-6)[Man(a1-3)]Man
# Method in brief: as §1
# [18] = molecular target: Man(a1-3)[Man(a1-6)]Man(a1-6)[Man(a1-3)]Man(b1-4)GlcNAc(b1-4)GlcNAc
# Method in brief: as §1
# [19] = molecular target: Man(a1-3)[Man(a1-6)]Man(b1-4)GlcNAc(b1-4)GlcNAc
# Method in brief: as §1
# Man(a1-6)Man = molecular target: Man(a1-6)Man
# Method in brief: as §1
# Man(b1-4)GlcNAc = molecular target: Man(b1-4)GlcNAc
# Method in brief: as §1
# Neu5Ac(a2-3)Gal = molecular target: Neu5Ac(a2-3)Gal
# Method in brief: as §1
# [20] = molecular target: Neu5Ac(a2-3)Gal(b1-3)GalNAc
# Method in brief: as §1
# [21] = molecular target: Neu5Ac(a2-3)Gal(b1-3)GalNAc(b1-3)Gal(a1-4)Gal(b1-4)Glc
# Method in brief: as §1
# [22] = molecular target: Neu5Ac(a2-3)Gal(b1-3)GalNAc(b1-4)[Neu5Ac(a2-3)]Gal(b1-4)Glc
# Method in brief: as §1
# [23] = molecular target: Neu5Ac(a2-3)Gal(b1-3)GalNAc6S
# Method in brief: as §1
# [24] = molecular target: Neu5Ac(a2-3)Gal(b1-3)GlcNAc
# Method in brief: as §1
# [25] = molecular target: Neu5Ac(a2-3)Gal(b1-3)GlcNAc(b1-2)Man(a1-3)[Neu5Ac(a2-3)Gal(b1-3)GlcNAc(b1-2)Man(a1-6)]Man(b1-4)GlcNAc(b1-4)GlcNAc
# Method in brief: as §1
binder,measurement,setting,value
"exo-alpha-sialidase (Propionibacterium acnes), Q6A7G1 (protein) GSHMSGRAPAPVAATTQPKLVTGDITSTDQSGTNLFFGKKIVRNARGAIMKVDRTWPAAVPAPLPDVRADSSTRMLLGPVVDLAVNEHPEGVFYRIPALATASNGDLLASYDLRPGSAGDAPNPNSIVQRRSRDNGRTWGPQTVIHAGTPGRRKVGYSDPSYLVDPATGRILNFHVKSYDRGFATSEVGTDPDDRHVLHAEVSTSTDNGHTWTHRDITREITSDPTTRTRFVASGQGIALLHGPHAGRLIAQMTVRNSVGQQAQSIYSDDHGITWHAGNPVGRMMDENKVVELSDGTLMLNSRDAARSGRRKVAYSQDGGLTWGPVKLVDDLIDPTNNAQIIRAYPNARAGSAKARILLFTNARNATERVNGTLSVSCDDGRTWVSHQTYMPGEVGYTTAAVQSDGALGVLWERDGIRYSTIPMGWLNSVCPLAPSGRPTSGKPTSGTSLPPTAT",glycan array binding signal (z-score),GlcNAc(b1-4)GlcNAc,-0.364
same,glycan array binding signal (z-score),[1],-0.37
same,glycan array binding signal (z-score),[2],-0.243
same,glycan array binding signal (z-score),[3],-0.341
same,glycan array binding signal (z-score),[4],-0.375
same,glycan array binding signal (z-score),[5],-0.291
same,glycan array binding signal (z-score),GlcNAc(b1-6)GalNAc,-0.33
same,glycan array binding signal (z-score),GlcNAc3Prop(b1-4)GlcNAc,-0.35
same,glycan array binding signal (z-score),[6],-0.329
same,glycan array binding signal (z-score),Kdn(a2-3)Gal(b1-3)GalNAc,-0.265
same,glycan array binding signal (z-score),Kdn(a2-3)Gal(b1-3)GlcNAc,-0.321
same,glycan array binding signal (z-score),Kdn(a2-3)Gal(b1-4)Glc,-0.283
same,glycan array binding signal (z-score),Kdn(a2-3)Gal(b1-4)GlcNAc,-0.343
same,glycan array binding signal (z-score),[7],-0.23
same,glycan array binding signal (z-score),Kdn(a2-6)Gal(b1-4)GlcNAc,-0.332
same,glycan array binding signal (z-score),[8],-0.358
same,glycan array binding signal (z-score),[9],-0.365
same,glycan array binding signal (z-score),Man(a1-2)Man(a1-3)Man,-0.339
same,glycan array binding signal (z-score),[10],-0.348
same,glycan array binding signal (z-score),[11],-0.359
same,glycan array binding signal (z-score),[12],-0.344
same,glycan array binding signal (z-score),[13],-0.356
same,glycan array binding signal (z-score),[14],-0.355
same,glycan array binding signal (z-score),[15],-0.355
same,glycan array binding signal (z-score),Man(a1-3)[Man(a1-6)]Man,-0.336
same,glycan array binding signal (z-score),[16],-0.305
same,glycan array binding signal (z-score),[17],-0.294
same,glycan array binding signal (z-score),[18],-0.356
same,glycan array binding signal (z-score),[19],-0.346
same,glycan array binding signal (z-score),Man(a1-6)Man,-0.309
same,glycan array binding signal (z-score),Man(b1-4)GlcNAc,-0.29
same,glycan array binding signal (z-score),Neu5Ac(a2-3)Gal,0.42
same,glycan array binding signal (z-score),[20],3.6
same,glycan array binding signal (z-score),[21],0.286
same,glycan array binding signal (z-score),[22],6.27
same,glycan array binding signal (z-score),[23],3.54
same,glycan array binding signal (z-score),[24],3.17
same,glycan array binding signal (z-score),[25],-0.092

# — the supplement of paper PMC8728848
